Screen size: about 340,000 compounds; about 6,900 (2%) were called active. Rule as the data show it: active = inhibition above about 30%; inactive = below that, where a call was filed. Only a part is listed here, and it is no random draw. The source gives no active or inactive call for entries shown without one.
What follows are compounds tested against D(2) dopamine receptor (Homo sapiens) (UniProt P14416) (assay: HTS Assay for Allosteric Antagonists of the Human D2 Dopamine Receptor: Primary Screen for Antagonists). Details: HEK293 TREx D2 cells, calcium flux, dopamine EC80; at 10 µM; stronger effect = higher value.
Summary of the method: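 Measurement of antagonist activity uses fluorescent calcium dye in inducible HEK293 T-REx D2 cells: 10 s baseline, compound addition with 180 s read, EC80 dopamine addition with a further 180 s read.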
Also: 0% is about no effect.

Chain of UniProt P14416 (P14416 whole entry, looked up): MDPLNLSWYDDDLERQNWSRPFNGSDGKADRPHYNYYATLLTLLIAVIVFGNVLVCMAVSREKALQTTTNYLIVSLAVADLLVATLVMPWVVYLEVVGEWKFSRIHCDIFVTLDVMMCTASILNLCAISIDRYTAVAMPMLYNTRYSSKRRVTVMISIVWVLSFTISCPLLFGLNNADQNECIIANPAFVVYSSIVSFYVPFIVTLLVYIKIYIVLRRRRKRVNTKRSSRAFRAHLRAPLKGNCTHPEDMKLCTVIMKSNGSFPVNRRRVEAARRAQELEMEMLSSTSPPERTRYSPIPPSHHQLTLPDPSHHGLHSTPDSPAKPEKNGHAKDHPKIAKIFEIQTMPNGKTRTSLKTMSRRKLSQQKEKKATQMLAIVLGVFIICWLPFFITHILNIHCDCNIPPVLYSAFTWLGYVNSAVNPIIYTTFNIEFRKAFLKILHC

With Cc1sc2ncn(CC(=O)N3CCN(c4ccc(F)cc4)CC3)c(=O)c2c1S(=O)(=O)N1CCN(c2ncccn2)CC1 as the compound, how does the inhibition read?
The inhibition was -2.45%.

For COc1cccc(CNC(=O)CCS(=O)(=O)c2ccc3c(c2)CC(C)N3C(=O)C2CC2)c1 (configuration not stated), which inhibition is on record?
Its inhibition is -0.428%.

O=C(c1cccs1)N1CCN(C(=O)C2CCCO2)CC1 (configuration not stated) was tested. Which inhibition did it give?
The inhibition was active: 37.4%.

With COc1cc(Cl)c(C)cc1NC(=O)c1cc2c(s1)-c1c(C)cccc1OC2 as the compound, how does the inhibition read?
Its inhibition is -4.42%.

For O=C(NC(CO)C(O)c1ccc([N+](=O)[O-])cc1)C(Cl)Cl (configuration not stated), which inhibition is on record?
The inhibition was active: 51.9%.

O=C(Cn1c(=O)nc(-c2ccccc2)c2cc(Cl)ccc21)NCCc1ccccc1 was tested. Which inhibition did it give?
Its inhibition is 13.7%.

Which inhibition does the source give for O=C(c1cccs1)N1CCN(CCCc2ccccc2)CC1 here?
The inhibition was active: 58.8%.

Which inhibition does the source give for CC1CN(C2CCCCC2)c2nc3c(c(=O)n(C)c(=O)n3C)n2C1 (configuration not stated) here?
Its inhibition is active: 38.7%.

Cc1cc(=O)n2nc(N(C)CC(=O)NCc3ccc(Cl)cc3)sc2n1 was tested. Which inhibition did it give?
The inhibition was 0.536%.

How did the inhibition turn out when CCc1cccc(NC(=O)CCN2C(=O)c3ccccc3Sc3ncccc32)c1 was run?
The inhibition was -12.4%.

For COc1ccc(CN(C(=O)Cc2coc3ccc(C)cc23)C2CCS(=O)(=O)C2)cc1 (configuration not stated), which inhibition is on record?
Its inhibition is 8.11%.

Which inhibition does the source give for CCOC(=O)c1cccc(NC(=O)C2CCCN(S(=O)(=O)c3cc(Br)cc4c3N(C(=O)CC)CC4)C2)c1 (configuration not stated) here?
The inhibition was 0.574%.

With O=C(NCC1CCN(Cc2ccc(F)cc2)CC1)c1cc2ccc3cccnc3c2[nH]1 as the compound, how does the inhibition read?
The inhibition was -2.56%.

With CCOc1ccc(NC(=O)Cn2c(=O)oc3cc(S(=O)(=O)N4CCC(C)CC4)ccc32)cc1 as the compound, how does the inhibition read?
Its inhibition is -9.61%.

How did the inhibition turn out when CCOc1ccc(NC(=O)CN2CCN(c3ccc(Cl)cc3)CC2)cc1 was run?
Its inhibition is -14.5%.

Cn1c(=O)cc(SCC(=O)NCCCN2CCN(c3ccccc3F)CC2)c2ccccc21 was tested. Which inhibition did it give?
The inhibition was active: 91.6%.

O=C(c1cc(F)cc(F)c1)N1CCC(c2nc(-c3ccc(S(=O)(=O)N4CCCC4)cc3)no2)CC1 was tested. Which inhibition did it give?
The inhibition was 11.6%.

COc1ccc(OC)c(CCNC(=O)c2cc3c(=O)n(C)c4ccccc4c3n2C)c1 was tested. Which inhibition did it give?
The inhibition was 1.59%.

CCCCN(CC)CCCNC(=O)c1cn(CC)c2ccc(S(=O)(=O)N3CCOCC3)cc2c1=O was tested. Which inhibition did it give?
Its inhibition is 5.31%.

For Cc1ccc(NC(=O)CSc2nc(-c3ccco3)cc(C(F)(F)F)n2)cc1C, which inhibition is on record?
Its inhibition is 8.31%.

How did the inhibition turn out when CCOc1ccccc1-n1nnc(S(=O)(=O)c2ccc(C)cc2)c1N was run?
Its inhibition is -16.6%.

Which inhibition does the source give for COc1ccc(C2N3CC4(C)CN2CC(c2ccccc2)(C3)C4=O)cc1 (configuration not stated) here?
The inhibition was -13.5%.

Which inhibition does the source give for Cc1ccc(NC(=O)c2nc(-c3ccncc3)no2)c(Cl)c1 here?
Its inhibition is 10.9%.

For COc1cc(NC(=O)c2ncn(-c3ccccc3)n2)cc(OC)c1, which inhibition is on record?
The inhibition was 5.9%.

Cn1ncc(C(=O)N2CCN(c3ccccc3F)CC2)c1C1CCN(C(=O)OC(C)(C)C)CC1 was tested. Which inhibition did it give?
Its inhibition is 3.25%.

Cc1cc(SCC(=O)NCc2ccc(F)cc2)nc(=O)[nH]1 was tested. Which inhibition did it give?
Its inhibition is 12.7%.

With CC(=O)c1ccc(NC(=O)CSc2nccn2Cc2ccc3c(c2)OCO3)cc1 as the compound, how does the inhibition read?
Its inhibition is 2.45%.

Which inhibition does the source give for CCCN1C(C(=O)c2ccccc2)=C(OC(=O)c2ccc(C)cc2)c2ccccc2S1(=O)=O here?
Its inhibition is -9.92%.

O=C(NC12CC3CC(CC(C3)C1)C2)N1CCN(c2ccccn2)CC1 was tested. Which inhibition did it give?
The inhibition was active: 31.1%.

With Cc1ccc(NC(=O)Cn2c(=O)ccc3cc(S(=O)(=O)N4CCC(C)CC4)ccc32)cc1C as the compound, how does the inhibition read?
The inhibition was -2.61%.

COc1ccc(NC(=O)c2c(C)oc3ccc(O)c(CN4CCOCC4)c23)cc1 was tested. Which inhibition did it give?
Its inhibition is 4.68%.

For Cc1cccc(NC(=O)CSc2nc(=O)n(Cc3cccnc3)c3c2CCC3)c1, which inhibition is on record?
The inhibition was 15.8%.

With O=C(COc1ccc(Cl)cc1)NCCc1csc(-c2cccc(F)c2)n1 as the compound, how does the inhibition read?
The inhibition was -18%.

CCOc1ccc(NC(=O)c2oc3ccccc3c2NC(=O)Cc2cccc(C)c2)cc1 was tested. Which inhibition did it give?
Its inhibition is 3.84%.

For COc1ccc(OC)c(NS(=O)(=O)c2ccc(Br)s2)c1, which inhibition is on record?
The inhibition was 6.66%.

CC(C)c1ccc(NC(=O)CCNS(=O)(=O)c2cccc3nsnc23)cc1 was tested. Which inhibition did it give?
Its inhibition is 11.8%.

COc1ccc(C(=O)Oc2ccc(C(c3c(C)[nH][nH]c3=O)c3c(C)[nH][nH]c3=O)cc2OC)cc1 was tested. Which inhibition did it give?
The inhibition was 8.25%.

For CN1CCN(CCC(=O)Nc2ccc(Cl)cc2)CC1, which inhibition is on record?
The inhibition was -11.9%.

How did the inhibition turn out when O=C(CSc1nc(=O)[nH]c2c1CCC2)NCc1ccc(F)cc1 was run?
Its inhibition is -9.19%.

Cc1cccc(C(=O)Nc2ccc(S(=O)(=O)N3CCCCC3c3cccnc3)cc2)c1 (configuration not stated) was tested. Which inhibition did it give?
Its inhibition is -21.2%.

Cc1ccc(-n2ncc3c(N4CCN(Cc5ccccc5)CC4)ncnc32)cc1 was tested. Which inhibition did it give?
The inhibition was -11.8%.

Which inhibition does the source give for COc1ccc(Cl)cc1S(=O)(=O)N1CCN(C(=O)c2cc(-c3ccc(Br)cc3)n[nH]2)CC1 here?
The inhibition was 4.57%.

Which inhibition does the source give for Cc1cccc(-c2nc(C)c(CCNC(=O)C(=O)Nc3ccc(C)c(C)c3)s2)c1 here?
Its inhibition is -0.389%.

Which inhibition does the source give for CCOc1ccccc1CNc1nc2nc(C)c(CC(=O)OC)c(=O)n2[nH]1 here?
Its inhibition is -3.04%.

Which inhibition does the source give for CC1=C(C(=O)Nc2ccccc2C)C2(CCCCC2)C(C(N)=O)C(=S)N1 (configuration not stated) here?
The inhibition was active: 38%.

With COc1ccc2c(Sc3ccccc3)c(C(=O)NCc3cc(Br)ccc3OC)[nH]c2c1 as the compound, how does the inhibition read?
The inhibition was -16.6%.

O=C(CC(c1cccs1)N1Cc2ccccc2C1=O)Nc1cccc(F)c1 (configuration not stated) was tested. Which inhibition did it give?
Its inhibition is 4.13%.

Reference: PubChem BioAssay AID485344 (National Center for Advancing Translational Sciences (NCATS), 2010)
